# According to the supplement of paper PMC8728848:
# The list shows a part of the results.
# B1: SAOUHSC 00176 (Staphylococcus aureus) (protein)
# chain: MSKILKCITLAVVMLLIVTACGPNRSKEDIDKALNKDNSKDKPNQLTMWVDGDKQMAFYKKITDQYTKKTGIKVKLVNIGQNDQLENISLDAPAGKGPDIFFLAHDNTGSAYLQGLAAEIKLSKDELKGFNKQALKAMNYDNKQLALPAIVETTALFYNKKLVKNAPQTLEEVEANAAKLTDSKKKQYGMLFDAKNFYFNYPFLFGNDDYIFKKNGSEYDIHQLGLNSKHVVKNAERLQKWYDKGYLPKAATHDVMIGLFKEGKVGQFVTGPWNINEYQETFGKDLGVTTLPTDGGKPMKPFLGVRGWYLSEYSKHKYWAKDLMLYITSKDTLQKYTDEMSEITGRVDVKSSNPNLKVFEKQARHAEPMPNIPEMRQVWEPMGNASIFISNGKNPKQALDEATNDITQNIKILHPSQNDKKGD
# What was measured:
# Experiment in all cases: glycan array binding signal (z-score within array); higher = stronger binding
# Details in all cases: glycan notation: IUPAC condensed, linker removed
# [1] = molecular target: Gal(b1-4)GlcNAc(b1-2)[Gal(b1-4)GlcNAc(b1-6)]Man(a1-6)[GlcNAc(b1-4)][Gal(b1-4)GlcNAc(b1-2)Man(a1-3)]Man(b1-4)GlcNAc(b1-4)GlcNAc
# How it was run: (§1)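 Glycan array data were curated from 3228 arrays in the Consortium for Functional Glycomics database and kept only where the protein sequence was available. Glycan names were converted to IUPAC-condensed notation, and columns mapping to the same glycan were averaged. The binding signal is a within-array Z-score, averaged across arrays of the same protein sequence at different concentrations or buffers and across linkers. Negative Z-scores can be read as non-binding.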
# [2] = molecular target: Gal(b1-4)GlcNAc(b1-2)[Gal(b1-4)GlcNAc(b1-6)]Man(a1-6)[GlcNAc(b1-4)][Gal(b1-4)GlcNAc(b1-2)[Gal(b1-4)GlcNAc(b1-4)]Man(a1-3)]Man(b1-4)GlcNAc(b1-4)[Fuc(a1-6)]GlcNAc
# How it was run: as §1
# [3] = molecular target: Gal(b1-4)GlcNAc(b1-3)Gal(b1-3)GalNAc
# How it was run: as §1
# [4] = molecular target: Gal(b1-4)GlcNAc(b1-3)Gal(b1-3)GlcNAc
# How it was run: as §1
# [5] = molecular target: Gal(b1-4)GlcNAc(b1-3)Gal(b1-4)Glc
# How it was run: as §1
# [6] = molecular target: Gal(b1-4)GlcNAc(b1-3)Gal(b1-4)GlcNAc
# How it was run: as §1
# [7] = molecular target: Gal(b1-4)GlcNAc(b1-3)Gal(b1-4)GlcNAc(b1-2)Man(a1-3)[Gal(b1-4)GlcNAc(b1-3)Gal(b1-4)GlcNAc(b1-2)Man(a1-6)]Man(b1-4)GlcNAc(b1-4)GlcNAc
# How it was run: as §1
# [8] = molecular target: Gal(b1-4)GlcNAc(b1-3)Gal(b1-4)GlcNAc(b1-2)Man(a1-3)[Gal(b1-4)GlcNAc(b1-3)Gal(b1-4)GlcNAc(b1-2)Man(a1-6)]Man(b1-4)GlcNAc(b1-4)[Fuc(a1-6)]GlcNAc
# How it was run: as §1
# [9] = molecular target: Gal(b1-4)GlcNAc(b1-3)Gal(b1-4)GlcNAc(b1-2)[Gal(b1-4)GlcNAc(b1-3)Gal(b1-4)GlcNAc(b1-6)]Man(a1-6)[Gal(b1-4)GlcNAc(b1-3)Gal(b1-4)GlcNAc(b1-2)Man(a1-3)]Man(b1-4)GlcNAc(b1-4)GlcNAc
# How it was run: as §1
# [10] = molecular target: Gal(b1-4)GlcNAc(b1-3)Gal(b1-4)GlcNAc(b1-2)[Gal(b1-4)GlcNAc(b1-3)Gal(b1-4)GlcNAc(b1-6)]Man(a1-6)[Gal(b1-4)GlcNAc(b1-3)Gal(b1-4)GlcNAc(b1-2)Man(a1-3)]Man(b1-4)GlcNAc(b1-4)[Fuc(a1-6)]GlcNAc
# How it was run: as §1
# [11] = molecular target: Gal(b1-4)GlcNAc(b1-3)Gal(b1-4)GlcNAc(b1-3)Gal(b1-4)GlcNAc
# How it was run: as §1
# [12] = molecular target: Gal(b1-4)GlcNAc(b1-3)Gal(b1-4)GlcNAc(b1-3)Gal(b1-4)GlcNAc(b1-2)Man(a1-3)[Gal(b1-4)GlcNAc(b1-3)Gal(b1-4)GlcNAc(b1-3)Gal(b1-4)GlcNAc(b1-2)Man(a1-6)]Man(b1-4)GlcNAc(b1-4)GlcNAc
# How it was run: as §1
# [13] = molecular target: Gal(b1-4)GlcNAc(b1-3)Gal(b1-4)GlcNAc(b1-3)Gal(b1-4)GlcNAc(b1-2)Man(a1-3)[Gal(b1-4)GlcNAc(b1-3)Gal(b1-4)GlcNAc(b1-3)Gal(b1-4)GlcNAc(b1-2)Man(a1-6)]Man(b1-4)GlcNAc(b1-4)[Fuc(a1-6)]GlcNAc
# How it was run: as §1
# [14] = molecular target: Gal(b1-4)GlcNAc(b1-3)Gal(b1-4)GlcNAc(b1-3)Gal(b1-4)GlcNAc(b1-2)[Gal(b1-4)GlcNAc(b1-3)Gal(b1-4)GlcNAc(b1-3)Gal(b1-4)GlcNAc(b1-6)]Man(a1-6)[Gal(b1-4)GlcNAc(b1-3)Gal(b1-4)GlcNAc(b1-3)Gal(b1-4)GlcNAc(b1-2)Man(a1-3)]Man(b1-4)GlcNAc(b1-4)[Fuc(a1-6)]GlcNAc
# How it was run: as §1
# [15] = molecular target: Gal(b1-4)GlcNAc(b1-3)Gal(b1-4)GlcNAc(b1-3)Gal(b1-4)GlcNAc(b1-3)Gal(b1-4)GlcNAc(b1-2)Man(a1-3)[Gal(b1-4)GlcNAc(b1-3)Gal(b1-4)GlcNAc(b1-3)Gal(b1-4)GlcNAc(b1-3)Gal(b1-4)GlcNAc(b1-2)Man(a1-6)]Man(b1-4)GlcNAc(b1-4)GlcNAc
# How it was run: as §1
# [16] = molecular target: Gal(b1-4)GlcNAc(b1-3)Gal(b1-4)GlcNAc(b1-3)Gal(b1-4)GlcNAc(b1-3)Gal(b1-4)GlcNAc(b1-2)Man(a1-3)[Gal(b1-4)GlcNAc(b1-3)Gal(b1-4)GlcNAc(b1-3)Gal(b1-4)GlcNAc(b1-3)Gal(b1-4)GlcNAc(b1-2)Man(a1-6)]Man(b1-4)GlcNAc(b1-4)[Fuc(a1-6)]GlcNAc
# How it was run: as §1
# [17] = molecular target: Gal(b1-4)GlcNAc(b1-3)Gal(b1-4)GlcNAc(b1-3)Gal(b1-4)GlcNAc(b1-3)Gal(b1-4)GlcNAc(b1-2)[Gal(b1-4)GlcNAc(b1-3)Gal(b1-4)GlcNAc(b1-3)Gal(b1-4)GlcNAc(b1-3)Gal(b1-4)GlcNAc(b1-6)]Man(a1-6)[Gal(b1-4)GlcNAc(b1-3)Gal(b1-4)GlcNAc(b1-3)Gal(b1-4)GlcNAc(b1-3)Gal(b1-4)GlcNAc(b1-2)Man(a1-3)]Man(b1-4)GlcNAc(b1-4)[Fuc(a1-6)]GlcNAc
# How it was run: as §1
# [18] = molecular target: Gal(b1-4)GlcNAc(b1-3)Gal(b1-4)GlcNAc(b1-3)Gal(b1-4)GlcNAc(b1-3)Gal(b1-4)GlcNAc(b1-3)Gal(b1-4)GlcNAc(b1-2)Man(a1-3)[Gal(b1-4)GlcNAc(b1-3)Gal(b1-4)GlcNAc(b1-3)Gal(b1-4)GlcNAc(b1-3)Gal(b1-4)GlcNAc(b1-3)Gal(b1-4)GlcNAc(b1-2)Man(a1-6)]Man(b1-4)GlcNAc(b1-4)GlcNAc
# How it was run: as §1
# [19] = molecular target: Gal(b1-4)GlcNAc(b1-3)Gal(b1-4)GlcNAc(b1-3)Gal(b1-4)GlcNAc(b1-3)Gal(b1-4)GlcNAc(b1-3)Gal(b1-4)GlcNAc(b1-2)Man(a1-3)[Gal(b1-4)GlcNAc(b1-3)Gal(b1-4)GlcNAc(b1-3)Gal(b1-4)GlcNAc(b1-3)Gal(b1-4)GlcNAc(b1-3)Gal(b1-4)GlcNAc(b1-2)Man(a1-6)]Man(b1-4)GlcNAc(b1-4)[Fuc(a1-6)]GlcNAc
# How it was run: as §1
# [20] = molecular target: Gal(b1-4)GlcNAc(b1-3)Gal(b1-4)GlcNAc(b1-3)Gal(b1-4)GlcNAc(b1-3)Gal(b1-4)GlcNAc(b1-3)Gal(b1-4)GlcNAc(b1-2)[Gal(b1-4)GlcNAc(b1-3)Gal(b1-4)GlcNAc(b1-3)Gal(b1-4)GlcNAc(b1-3)Gal(b1-4)GlcNAc(b1-3)Gal(b1-4)GlcNAc(b1-6)]Man(a1-6)[Gal(b1-4)GlcNAc(b1-3)Gal(b1-4)GlcNAc(b1-3)Gal(b1-4)GlcNAc(b1-3)Gal(b1-4)GlcNAc(b1-3)Gal(b1-4)GlcNAc(b1-2)Man(a1-3)]Man(b1-4)GlcNAc(b1-4)[Fuc(a1-6)]GlcNAc
# How it was run: as §1
# [21] = molecular target: Gal(b1-4)GlcNAc(b1-3)Gal(b1-4)GlcNAc(b1-3)Gal(b1-4)GlcNAc(b1-3)Gal(b1-4)GlcNAc(b1-3)Gal(b1-4)GlcNAc(b1-3)Gal(b1-4)GlcNAc(b1-2)Man(a1-3)[Gal(b1-4)GlcNAc(b1-3)Gal(b1-4)GlcNAc(b1-3)Gal(b1-4)GlcNAc(b1-3)Gal(b1-4)GlcNAc(b1-3)Gal(b1-4)GlcNAc(b1-3)Gal(b1-4)GlcNAc(b1-2)Man(a1-6)]Man(b1-4)GlcNAc(b1-4)GlcNAc
# How it was run: as §1
# [22] = molecular target: Gal(b1-4)GlcNAc(b1-3)Gal(b1-4)GlcNAc(b1-3)GalNAc
# How it was run: as §1
# [23] = molecular target: Gal(b1-4)GlcNAc(b1-3)Gal(b1-4)GlcNAc(b1-3)[Gal(b1-4)GlcNAc(b1-3)Gal(b1-4)GlcNAc(b1-6)]GalNAc
# How it was run: as §1
# [24] = molecular target: Gal(b1-4)GlcNAc(b1-3)Gal(b1-4)GlcNAc(b1-6)[Gal(b1-3)]GalNAc
# How it was run: as §1
# [25] = molecular target: Gal(b1-4)GlcNAc(b1-3)Gal(b1-4)[Fuc(a1-3)]GlcNAc(b1-3)Gal(b1-4)[Fuc(a1-3)]GlcNAc
# How it was run: as §1
# [26] = molecular target: Gal(b1-4)GlcNAc(b1-3)GalNAc
# How it was run: as §1
# [27] = molecular target: Gal(b1-4)GlcNAc(b1-3)[Fuc(a1-3)GlcNAc(b1-6)]Gal(b1-4)Glc
# How it was run: as §1
# [28] = molecular target: Gal(b1-4)GlcNAc(b1-3)[Gal(b1-4)GlcNAc(b1-6)]Gal(b1-4)GlcNAc
# How it was run: as §1
# [29] = molecular target: Gal(b1-4)GlcNAc(b1-3)[GlcNAc(b1-6)]Gal(b1-4)GlcNAc
# How it was run: as §1
# [30] = molecular target: Gal(b1-4)GlcNAc(b1-6)Gal(b1-4)GlcNAc
# How it was run: as §1
# [31] = molecular target: Gal(b1-4)GlcNAc(b1-6)GalNAc
# How it was run: as §1
# [32] = molecular target: Gal(b1-4)GlcNAc(b1-6)[Gal(b1-3)]GalNAc
# How it was run: as §1
# [33] = molecular target: Gal(b1-4)GlcNAc(b1-6)[Gal(b1-4)GlcNAc(b1-3)]GalNAc
# How it was run: as §1
# Gal(b1-4)GlcNAc6P = molecular target: Gal(b1-4)GlcNAc6P
# How it was run: as §1
# Gal(b1-6)Gal = molecular target: Gal(b1-6)Gal
# How it was run: as §1
# Gal3S(b1-3)GalNAc = molecular target: Gal3S(b1-3)GalNAc
# How it was run: as §1
# Gal3S(b1-3)GlcNAc = molecular target: Gal3S(b1-3)GlcNAc
# How it was run: as §1
# [34] = molecular target: Gal3S(b1-3)[Fuc(a1-4)]GlcNAc
# How it was run: as §1
binder,measurement,setting,value
B1,glycan array binding signal (z-score),[1],-0.156
same,glycan array binding signal (z-score),[2],-0.098
same,glycan array binding signal (z-score),[3],-0.068
same,glycan array binding signal (z-score),[4],-0.141
same,glycan array binding signal (z-score),[5],-0.125
same,glycan array binding signal (z-score),[6],-0.075
same,glycan array binding signal (z-score),[7],0.017
same,glycan array binding signal (z-score),[8],0.174
same,glycan array binding signal (z-score),[9],0.619
same,glycan array binding signal (z-score),[10],-0.019
same,glycan array binding signal (z-score),[11],-0.089
same,glycan array binding signal (z-score),[12],0.055
same,glycan array binding signal (z-score),[13],-0.016
same,glycan array binding signal (z-score),[14],0.056
same,glycan array binding signal (z-score),[15],0.201
same,glycan array binding signal (z-score),[16],0.032
same,glycan array binding signal (z-score),[17],-0.068
same,glycan array binding signal (z-score),[18],-0.05
same,glycan array binding signal (z-score),[19],0.051
same,glycan array binding signal (z-score),[20],0.091
same,glycan array binding signal (z-score),[21],-0.112
same,glycan array binding signal (z-score),[22],0.003
same,glycan array binding signal (z-score),[23],0.087
same,glycan array binding signal (z-score),[24],-0.048
same,glycan array binding signal (z-score),[25],-0.146
same,glycan array binding signal (z-score),[26],-0.132
same,glycan array binding signal (z-score),[27],-0.045
same,glycan array binding signal (z-score),[28],-0.134
same,glycan array binding signal (z-score),[29],0.01
same,glycan array binding signal (z-score),[30],-0.109
same,glycan array binding signal (z-score),[31],0.031
same,glycan array binding signal (z-score),[32],0.017
same,glycan array binding signal (z-score),[33],-0.111
same,glycan array binding signal (z-score),Gal(b1-4)GlcNAc6P,-0.161
same,glycan array binding signal (z-score),Gal(b1-6)Gal,-0.04
same,glycan array binding signal (z-score),Gal3S(b1-3)GalNAc,-0.09
same,glycan array binding signal (z-score),Gal3S(b1-3)GlcNAc,-0.12
same,glycan array binding signal (z-score),[34],-0.071
